# Data taken from PMC10668032.
# This is one part of the list. At the low end of the ranking the order means little.
# Target: SIX1 homeodomain (reference allele) (UniProt Q15475)
# Experiment: universal protein binding microarray
# Settings: Universal all-10-mer PBM (8x60K, AMADID 030236), 300 nM GST-tagged protein, Alexa Fluor 488 anti-GST; buffer, salt, pH and temperature not stated; high values mean tight binding; most listed sequences are background and not binding sites; double strand, one strand shown
row,Sequence,binding signal [E-score]
1,GTATTAGA,0.237
2,CGAGACAC,0.176
3,CGGTGCCC,-0.0466
4,CTAATCCC,0.215
5,CCGCATGC,0.0337
6,CGCAAGAA,0.0307
7,CGGGCGAG,-0.168
8,ATCTGGCG,0.114
9,GGCCCTAC,-0.117
10,ACTAAAGC,-0.198
11,ACTCTTAT,0.103
12,ACAGTCGG,-0.075
13,CTCTGAGC,-0.0135
14,ATGTCTTC,-0.117
15,CCAATCTC,0.0567
16,CCCGAACA,-0.0584
17,GAAAGACC,-0.241
18,ACTATGAC,-0.104
19,CACCAGCG,0.0438
20,AAGCTAAA,-0.255
21,ATATCAAT,0.421
22,AAGGAATA,-0.00178
23,GAGACGCC,0.155
24,TGATATAA,0.297
25,ATGAATTG,-0.16

row,Sequence,binding signal [E-score]
1,GCTCCCTA,-0.132
2,AGAGAGCC,-0.187
3,CAACGGAG,0.0127
4,AGAGGCAA,-0.0842
5,TCGGGTAA,0.0661
6,ATTAGTTC,0.000865
7,CTGCCATA,0.0315
8,GAGACCTC,0.118
9,CGTTTGGC,-0.269
10,ATACCCTA,0.452
11,GTTTCTAA,-0.00822
12,AAAGCTGC,-0.151
13,ATGGTGAG,0.113
14,GGTCCGTA,0.0125
15,GCAGTAGC,-0.0595
16,AACTGTGA,-0.0846
17,CTTCACAA,-0.174
18,CAAGAGCG,-0.135
19,CAGTCGAC,-0.0279
20,GGGGCAGA,0.0389
21,CCCTCGGA,0.183
22,ACGCCAGT,0.0282
23,CCGTGCTA,-0.149
24,TCCGCGCA,-0.0491
25,ACCGAACC,-0.0494

row,Sequence,binding signal [E-score]
1,AGTCCTCA,-0.0846
2,GGACACAA,0.0336
3,GAAGGTCC,-0.172
4,AACCTAGG,-0.103
5,ACGGGAAC,-0.137
6,ATAAAGAA,-0.00534
7,GAATTATA,0.054
8,CCACCGAG,-0.0381
9,TAATATGA,0.196
10,AGCTCTGA,-0.12
11,ATTATTAC,0.0883
12,CACACGCC,-0.0621
13,CTAGGGCC,-0.274
14,CGTAGACA,-0.23
15,AGCCGACG,-0.0518
16,CCGCATTA,0.157
17,AGAAATTG,-0.205
18,GGGACTTA,-0.273
19,AGACTTGG,-0.196
20,AGCACGTA,0.0461
21,CTAGTCAG,-0.0589
22,TATTGGCA,0.223
23,GCCGATAA,0.0925
24,GCAGCCCC,0.0292
25,CGTCCTGC,-0.0398

row,Sequence,binding signal [E-score]
1,GGACATCA,-0.354
2,AATTTGAG,-0.0286
3,CCACATTA,-0.151
4,CAGGTATG,0.0947
5,ACCCGATA,0.4
6,GTATCGTA,0.423
7,CCAAGGAA,-0.0173
8,GCAGGATA,0.329
9,ACACCGCC,0.321
10,ATCCGGGC,0.356
11,CGCGGTAA,0.00277
12,AGGTCGAC,-0.0928
13,ACATTCGC,-0.215
14,AATGACCA,-0.172
15,AACAGCTC,-0.124
16,GCTTGAAC,0.0493
17,GCCTAGCC,-0.105
18,ACAGCTTA,-0.185
19,CATGTGCC,-0.149
20,CGCCACAA,-0.148
21,ACCGGTTC,-0.0619
22,ACTCTAAA,-0.129
23,CGTGTTAG,0.028
24,GTCAAAAC,-0.239
25,ATTAGCCC,-0.156

row,Sequence,binding signal [E-score]
1,GAGGGATA,0.412
2,CACCGGTG,0.196
3,GATTCTCC,0.0562
4,ATCCCAGG,0.246
5,CCCCGACC,0.0718
6,AATTCGGG,0.0243
7,AGGTGGTC,0.00885
8,GAATAAAA,-0.255
9,GCTAGCCC,-0.161
10,CCATGTGA,0.122
11,ACACCACG,0.263
12,CGCCCGAG,-0.0287
13,AAGCTGCG,-0.101
14,ATGACAGG,-0.127
15,AAACTAAC,-0.0834
16,GAGGGTCC,-0.0976
17,AAGGCGTC,0.0089
18,ATCCGTAG,0.225
19,CAGACGAC,-0.0852
20,AGTCAAGC,-0.29
21,ATGTTGTG,-0.101
22,AGTAGGTA,-0.0689
23,ACTCGTCA,-0.179
24,AGCGTAGG,-0.16
25,GAAAGTAA,-0.247

row,Sequence,binding signal [E-score]
1,ATTGAGTC,-0.0942
2,AACATAGC,0.00249
3,CAGCCCTG,-0.149
4,CGGACGTA,-0.0342
5,CGACACGA,0.144
6,GCTTAATA,0.169
7,GAACGTGC,-0.242
8,CGTTCATC,0.0166
9,CGACCGGA,0.0691
10,CCGATGTA,0.00377
11,CATTATGA,0.0814
12,GAACTTGC,-0.383
13,CTGCTCTA,-0.0529
14,CCATGGGA,0.117
15,ATCTCATA,0.246
16,AAACGCAA,-0.169
17,CGGCCCCA,-0.0943
18,AAGTTCTA,-0.105
19,GGTGTCGA,0.408
20,ATGAAGAA,-0.0444
21,GAATCAGC,-0.0801
22,GTGAAAGA,0.0314
23,CCAGGGTC,-0.133
24,CCCAAGGA,0.111
25,AAAGCCCT,-0.32

row,Sequence,binding signal [E-score]
1,TCCGATAA,0.223
2,AGGAGGGA,0.0873
3,ACCGTCTG,-0.0585
4,GGACCCTA,-0.064
5,TCGAAACA,0.0762
6,GGCCCAGA,-0.116
7,GCATTGAC,-0.0541
8,TAAAAGGA,-0.0906
9,CCGGCGCC,-0.132
10,GTACTAAC,-0.105
11,AAAGTAGT,-0.105
12,CATGGTGG,-0.0573
13,TAGATAAA,0.225
14,ACTCGTAG,-0.0708
15,GTTTGGTA,0.147
16,CTATAAGC,0.0134
17,ACGGCACT,-0.0273
18,GCGGATTA,0.318
19,AGTGTCCC,0.0828
20,GGCAACAA,-0.0385
21,AATAAGAG,-0.0077
22,ATTCCACG,-0.024
23,CATGGCTC,-0.0285
24,GTCGAACA,-0.179
25,AAATAAAA,-0.236

row,Sequence,binding signal [E-score]
1,CATGTATA,0.223
2,TAAGGACA,-0.157
3,TAATGGCA,-0.157
4,CGGGTATA,0.365
5,ACGGGACG,-0.292
6,AATGCCGC,-0.185
7,CCCTAACA,-0.0426
8,CACCCATC,0.145
9,CCACAGAC,-0.147
10,GGCTCACC,0.096
11,CATGAGCG,-0.214
12,CTTACTCA,0.0665
13,GTATGTTA,0.113
14,GGAAGGGA,-0.246
15,CCGGGCGA,0.0346
16,CAAATAGG,0.012
17,TTCCCGAA,-0.104
18,AATCGAAA,-0.249
19,GATTCTGC,0.0554
20,CGCACAGC,-0.0487
21,CGGATACG,0.387
22,GCTACCTA,-0.136
23,CTGCGATC,0.322
24,AGGTTGTC,-0.158
25,ACGGTCAA,-0.133

row,Sequence,binding signal [E-score]
1,GGCGGGAA,-0.0964
2,AAATTCTG,0.0126
3,GCGCTGGA,-0.218
4,GACATTCA,-0.0929
5,GTCGTAAC,-0.108
6,ATATCGCC,0.441
7,CTCCCTTC,-0.0355
8,CAAGTCAG,-0.218
9,CTGTATGA,0.187
10,AGTCGGGA,-0.0706
11,CCAGACGG,-0.0166
12,CCCTACTC,0.14
13,AGCCTAAA,-0.12
14,CAGAAAGA,-0.116
15,AAGGCATC,0.00281
16,CGTGAGAA,0.147
17,CGACCCAG,-0.0309
18,ATGGACTC,-0.209
19,GAGATTCA,-0.0703
20,CGCCACAG,0.05
21,TAGTGTGA,0.184
22,TAGAATGA,0.0388
23,ACTCCCTA,-0.177
24,CAATTGAG,0.103
25,GTTACGAA,-0.236

row,Sequence,binding signal [E-score]
1,CGTCATTC,0.0143
2,AACACATG,-0.283
3,ACCAATAC,0.282
4,AAAGTCAA,-0.271
5,GACTCCCC,-0.0447
6,CCGCGTAC,-0.107
7,CGTACGGA,-0.0537
8,AGGCTGAG,-0.00774
9,CCGATACC,0.478
10,CACTGAAA,-0.0676
11,CGCGCAAC,-0.196
12,CTGCAGGA,-0.0628
13,ACCGCACC,0.00277
14,CGATTAAC,0.24
15,GCAAGTCC,-0.174
16,GTGTGTTA,-0.136
17,AGCAAATA,-0.0272
18,AGCGTCGG,-0.136
19,AGACGGGG,0.111
20,AGGGTATG,0.28
21,ATCGCGCG,0.213
22,CCTAAGGA,0.146
23,GCGAAGTA,-0.108
24,AAAAATGC,-0.00573
25,CAGATATC,0.456

row,Sequence,binding signal [E-score]
1,TCGCTGCA,-0.111
2,GGGGAGGA,0.166
3,CCCGCCAA,0.0759
4,AAAACCTA,-0.0904
5,ACCCGCCT,0.0095
6,AGGATGGA,0.079
7,CTCAAGAG,-0.169
8,ATTGCTCA,-0.0366
9,TCACACGA,0.0662
10,TACTAACA,-0.0347
11,AGCATCCG,0.13
12,ATGGCAAG,-0.259
13,GACTCGTA,-0.0387
14,ACAGTTTA,-0.263
15,GTGCGGAA,-0.0385
16,ATTGCACG,-0.0424
17,CCTCGCAC,-0.171
18,CTAATACC,0.285
19,AAAAAAGC,-0.424
20,ATGGGTGG,0.0141
21,CGCTTGGC,-0.0972
22,ATTAGATG,0.171
23,ACCACATG,0.103
24,ACCCGTAC,0.0217
25,AAGGTGCG,-0.081

row,Sequence,binding signal [E-score]
1,CGGCCGGC,-0.0129
2,ACCCTTGA,-0.0204
3,AATCCGAG,0.237
4,CGAGAGAG,0.00996
5,ACATCACC,-0.115
6,ACGACAGC,-0.211
7,ACGCTAAT,-0.135
8,GCTAACGA,-0.00797
9,GGGAATTA,-0.153
10,AAATAGGA,-0.00121
11,GATTAGGA,0.101
12,CCGGGGTC,0.15
13,ATGCCCTG,0.114
14,CCTCCATC,-0.0753
15,TTACGCAA,-0.117
16,ACCACAGT,0.119
17,GGTGCTAA,-0.0565
18,CGCTCACG,-0.0419
19,TACCCGTA,0.313
20,AAGTCGAG,0.00992
21,ACGATAAG,0.0833
22,ATGATCAG,0.229
23,ACTGTTAA,-0.142
24,AGATGAGG,0.148
25,ACTCAACT,-0.0858

row,Sequence,binding signal [E-score]
1,GGAAGCGA,-0.133
2,AATTTGCC,-0.18
3,ACGCCTGG,-0.0104
4,AACGAAGG,-0.266
5,AACACACG,-0.206
6,TCGGGGAA,0.181
7,AATCCAGC,0.0665
8,CGAAGAAG,-0.14
9,CCGCGGAG,0.144
10,AAATCAGA,-0.0194
11,CGATCAAC,0.0445
12,CACCCTAC,0.102
13,ATTCTAGC,0.0421
14,ACCGTTCA,-0.0349
15,ACCGAATC,0.0775
16,AATTGCGG,-0.104
17,CAAGAAGG,-0.000455
18,ACAGGAAA,0.00575
19,CCTAGCAA,-0.0498
20,CATACTGG,0.128
21,TTCCGGAA,-0.126
22,CAGGAAGC,-0.1
23,ACGGCGCT,-0.279
24,ACCGTATG,0.129
25,CCGATCAG,0.24

row,Sequence,binding signal [E-score]
1,CGCTGTGC,-0.26
2,AGCCTGGG,0.106
3,TTGGCCAA,-0.225
4,GCTTCAAC,-0.189
5,AACAGGGT,-0.134
6,CCTTGATA,0.317
7,TAGCACAA,-0.189
8,GGTACTGA,-0.0408
9,CTGGTTTC,-0.0397
10,GTTGTCGA,-0.176
11,GTCATAAC,-0.0288
12,AGACGTCA,-0.0183
13,AGTGCCAT,-0.0752
14,GAAAACGA,-0.0291
15,ACAAAACT,-0.0831
16,AATCCGTC,0.234
17,CTCACCGC,0.00241
18,ACGCCGAG,-0.0319
19,GACGAGCC,0.00645
